Test results from the supplement of paper PMC11417369.
The list shows a part of the results.

system: PF3D7_0420300 AP2 domain 1 (GST-tagged); experiment: gcPBM binding intensity (ln(normalized median fluorescence intensity)); higher = stronger DNA binding
In short: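 Binding intensity is the highest Masliner-normalised natural-log median intensity over replicate spots in either probe orientation. To obtain it, GST-tagged P. falciparum DNA-binding domains made in E. coli were incubated for 1 h on an Agilent 4 × 180k array of primer-extended double-stranded 36-bp intergenic genomic probes plus negative controls. Detection used Alexa488 anti-GST antibody with scanning at 488 nm.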

First: ATATATTTATATATTACACACAATATTGTACAGATA [CACACA_site8215]
Second: AAATACTTGTCATATTGTACATGTTTGTGATATATA [XGTACX_site3185]
The “gcPBM binding intensity (ln)” value of the first is higher: 9.58 for the first, 9.31 for the second.

Compared with “GTTAAGAATATATAATGTACTTATTTTAATATAGTA [XGTACX_site6088]”, “AATAATCTATATTGTACACACAAAATGGGAAAAAAA [CACACA_site6969]” is higher in “gcPBM binding intensity (ln)” value: 9.06 for the first, 9.74 for the second.

Compared with “AATTAGATTTACTGAAGTACTTAATTTATTTTATTA [XGTACX_site3407]”, “AGGTACTTTTTTAAAACACACATATAACATATACAC [CACACA_site6629]” is higher in “gcPBM binding intensity (ln)” value: 9.23 for the first, 9.51 for the second.

Compared with “ACCCCCAATACGGAAACACACAAGTTATTTTATCAT [CACACA_site8874]”, “TAAAATATATATATGTGTACATAACATATAATTTTT [XGTACX_site1725]” is lower in “gcPBM binding intensity (ln)” value: 9.91 for the first, 9.13 for the second.

Going from “TTATTTAGTATATTATGTACATACAATGCCTGGGAA [XGTACX_site4578]” to “AGTATAAAAATATATTTACACACTATATATATCGAA [CACACA_site8494]”, the “gcPBM binding intensity (ln)” value rises from 9.21 to 9.43.

First: ATATGTTACAGACACACACACACATAAAAAAACAAA [CACACA_site3248]
Second: TATTGTTGTTCATGTACACACTATAATAAAAGCAAT [CACACA_site6148]
The “gcPBM binding intensity (ln)” value of the first is higher: 10.1 for the first, 9.48 for the second.

Going from “TTTTCATATTATAGTGCACACAAAAATATATATATG [CACACA_site8929]” to “TCTTTTAAACAGTACACACACACATCTATATTTATA [CACACA_site6559]”, the “gcPBM binding intensity (ln)” value rises from 9.32 to 10.

Compared with “CTCTGTTGTCTTAGTTGTACAATAGAAAAAAATAAT [XGTACX_site7043]”, “ATATATATATATATATGTACATATTGTATTAATTAT [XGTACX_site1919]” is higher in “gcPBM binding intensity (ln)” value: 9.02 for the first, 9.25 for the second.

Compared with “TGATTGAGTAAAATGGGTACATATACACTATTACAT [XGTACX_site5232]”, “TACAGGAATATTTTTACACACTAAAAATTATAAAAT [CACACA_site1649]” is higher in “gcPBM binding intensity (ln)” value: 9.19 for the first, 9.39 for the second.

Compared with “TTTTTTACTTTTGAGACATTTCATATTTTTATTCAC [GTGCAC_negctrl_site730]”, “AAAGGTTCACATTATATAGTTATGTAATATATATGT [CACACA_negctrl_site542]” is higher in “gcPBM binding intensity (ln)” value: 9.19 for the first, 9.21 for the second.

Compared with “ATATTGTATTTATGTACACACATTTTTGGAATATGA [CACACA_site4861]”, “TTTTTTCTCTGTGGCTGTACTTTGAAGATATTTTAT [XGTACX_site8243]” is lower in “gcPBM binding intensity (ln)” value: 9.54 for the first, 9.52 for the second.

First: TAGATATATAGACACACACACATTAATACCTATATT [CACACA_site7605]
Second: TGTCATTTAATTTTTTGTACGAAAAAAACATATAAA [XGTACX_site4952]
The “gcPBM binding intensity (ln)” value of the first is higher: 10.1 for the first, 8.88 for the second.

First: GTATATATATATGTATATATTTTATTTTATTTTTAT [CACACA_negctrl_site1439]
Second: TATATATATAGACACACACACACATATATATATATA [CACACA_site9366]
The “gcPBM binding intensity (ln)” value of the first is lower: 9.3 for the first, 10 for the second.

Going from “AGTTGTTTTAATAATGCATGTTATTTTATTTTAATA [TGCATGCA_site168]” to “GTACATAGATTGTACATACACACCTATATAAATATC [CACACA_site3225]”, the “gcPBM binding intensity (ln)” value falls from 9.46 to 9.42.

First: AATATATGGTTCCATGATATTAAATTCAATTTAATG [CACACA_negctrl_site605]
Second: TTTTTTTTGTTCTATACAATTATAAAAATAAAATAT [XGTACX_negctrl_site53]
The “gcPBM binding intensity (ln)” value of the first is higher: 9.02 for the first, 8.66 for the second.

Going from “GCTTATATAAAAAGTTGTACAACCGAATCTTTTACA [XGTACX_site2119]” to “TAATATCATTTATGTAGTACTATAACAAGAACTATA [XGTACX_site3618]”, the “gcPBM binding intensity (ln)” value falls from 9.2 to 9.03.

Compared with “AAAAAAAAAAAGCACACACACATATGAGTATATATA [CACACA_site4683]”, “AATGTAAAAGTAAACACACACATATATAAATACATA [CACACA_site5386]” is lower in “gcPBM binding intensity (ln)” value: 10 for the first, 9.95 for the second.

Going from “TACACAAGCAGACACACACACATATATATATATATA [CACACA_site1270]” to “ATTCTTATTTAAAGGTGTACTCTTAAACAGATTTTA [XGTACX_site3526]”, the “gcPBM binding intensity (ln)” value falls from 9.72 to 8.98.

Compared with “ATTTTAATATAAAATACACACTACTATTATAAATAT [CACACA_site4917]”, “GTACACATATAGTAATAATTTTATTATATTTTTTTG [CACACA_negctrl_site843]” is lower in “gcPBM binding intensity (ln)” value: 9.42 for the first, 9.28 for the second.

Compared with GGTCTTCTTAATATACTGCACTGTATACGTATATAA, “AGATTTAAATTTATATGTACATAATATGGGCGTATA [XGTACX_site6631]” is lower in “gcPBM binding intensity (ln)” value: 9.49 for the first, 9.27 for the second.

Going from “TTCATAAAATGATATTGTACAAATAAATAATAGTAT [XGTACX_site819]” to “TGTAGATTTTGTAACACACACATATATATACATATA [CACACA_site2405]”, the “gcPBM binding intensity (ln)” value rises from 9.34 to 9.69.

Going from “CTTATTATTATATGGGTGCTCATATTTTTCTTTTTT [GTGCAC_site9723]” to “ACAAACATTAGGGAAGCATGCAATATTTTTTTACAT [TGCATGCA_site372]”, the “gcPBM binding intensity (ln)” value falls from 9.4 to 9.28.

Going from “ATTATATACATATATATACACACGTAGTTTCTATTT [CACACA_site8697]” to “TACTTTTTATTTTCTTGTACTTAATTGTCCAGATTT [XGTACX_site4334]”, the “gcPBM binding intensity (ln)” value rises from 9.38 to 9.42.

Compared with “ATATATATATATAAATGTACATTTTTCAATAGTTTT [XGTACX_site7449]”, “TATAAATAAATAGATACACACATATATATAAATACA [CACACA_site155]” is higher in “gcPBM binding intensity (ln)” value: 9.39 for the first, 9.74 for the second.

Going from “TCTATATCTTTCAACACACAAATTTTTTTTTCCATC [CACACA_site4238]” to “AAAAAAAAAAAAAAAGTGCACAGTCGTTTTAAAAAA [GTGCAC_site9848]”, the “gcPBM binding intensity (ln)” value falls from 9.37 to 9.14.

Going from “AAATCATTTAAGAACACACAAATATTTCCATTAAAT [CACACA_site6808]” to “ATTAACTATCATAACACACACAGTAGACATATTTTT [CACACA_site1822]”, the “gcPBM binding intensity (ln)” value rises from 9.42 to 9.85.

Compared with “CTTTTCTCCCTCCATAGTACAATTATAAAAATATAT [XGTACX_site3090]”, “ATGCAAAGTTTATAAAGTACATAAGTCAAAATAAAA [XGTACX_site1441]” is higher in “gcPBM binding intensity (ln)” value: 9.28 for the first, 9.35 for the second.

Going from “AAGATAATATTTTCTTGTACGCATGCACATACAAAT [XGTACX_site7181]” to “CTCAATGTTTGCGATACATGCAAAAATTTTTAGAAT [TGCATGCA_site165]”, the “gcPBM binding intensity (ln)” value falls from 9.09 to 8.96.

“TACATTTCATTGTAATCATAAAAAATAAAGAAAAAA [XGTACX_negctrl_site542]” was tested, and the “gcPBM binding intensity (ln)” value was 8.93.
